In the supplement of paper PMC12217912:
This is one part of the list. Sequences were assembled here from the parent chain. Inactive controls read about 0.05.

B1: TEV protease; numbered along this chain (parent)
chain: MGESLFKGPRDYNPISSSICHLTNESDGHTTSLYGIGFGPFIITNKHLFRRNNGTLVVQSLHGVFKVKDTTTLQQHLVDGRDMIIIRMPKDFPPFPQKLKFREPQREERICLVTTNFQTKSMSSMVSDTSCTFPSGDGIFWKHWIQTKDGQCGSPLVSTRDGFIVGIHSASNFTNTNNYFTSVPKNFMELLTNQEAQQWVSGWRLNADSVLWGGHKVFMVKPEEPFQPVKEATQL

Variants of: B1
Assay: raw area under fraction-flipped curve 0-4 h after induction (AUC4h, not background-subtracted), DNA-recorder readout of cleavage of the substrate (dimensionless); higher = more cleavage of the substrate by the protease variant
Details: temperature: 34 °C; time window: 0-4 h after rhamnose induction
Experimental: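 In vivo DNA recorder in E. coli TOP10(DE3) ΔrhaA at 34 °C. Each TEVp single-site mutant (parent TEVp 0) is paired with a single-site variant of the 7-mer TEVs (canonical ENLYFQ|S). The substrate sits between flexible linkers in a Bxb1-sfGFP-TEVs-SsrA fusion, so cleavage stabilises Bxb1 and speeds flipping of a recombination array, read by NGS. The value is the raw area under the fraction-flipped curve over 0-4 h after rhamnose induction (AUC4h), with ≥20 reads per time point. It is not background-subtracted; inactive controls average about 0.047.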
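Further: Bxb1 expression induced with 0.2% (w/v) L-rhamnose at OD600 near 0.5, cultures sampled hourly, flipped fraction per protease–substrate barcode pair counted by paired-end Illumina sequencing.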

| Variant | area with substrate CNLYFQS | area with substrate DNLYFQS | area with substrate FNLYFQS | area with substrate HNLYFQS | area with substrate INLYFQS | area with substrate KNLYFQS | area with substrate LNLYFQS | area with substrate NNLYFQS | area with substrate PNLYFQS | area with substrate QNLYFQS | area with substrate TNLYFQS | area with substrate VNLYFQS | area with substrate WNLYFQS | area with substrate YNLYFQS | area with substrate MNLYFQS | area with substrate SNLYFQS | area with substrate GNLYFQS | area with substrate RNLYFQS |
| --- | --- | --- | --- | --- | --- | --- | --- | --- | --- | --- | --- | --- | --- | --- | --- | --- | --- | --- |
| E25N | 0.069 | 0.0874 | 0.0625 | 0.0627 | 0.0647 | 0.0689 | 0.0627 | 0.0676 | 0.0799 | 0.0693 | 0.0564 | 0.0683 | 0.0651 | 0.0577 | – | – | – | – |
| N24E | 0.0683 | 0.0754 | – | 0.0634 | 0.0634 | – | 0.0616 | 0.0671 | 0.0722 | 0.0477 | 0.0766 | 0.0659 | 0.0699 | – | 0.0703 | 0.0646 | – | – |
| S26N | 0.0648 | 0.0681 | 0.0613 | 0.0614 | 0.0436 | – | 0.0552 | 0.0342 | – | 0.0722 | – | – | 0.0552 | – | 0.0549 | 0.0711 | 0.0451 | 0.0487 |
| S26H | 0.0705 | 0.0777 | – | 0.0587 | 0.0446 | – | 0.06 | – | – | – | 0.0525 | – | 0.0599 | 0.0621 | – | – | 0.0574 | – |
| S26W | 0.0542 | 0.103 | 0.0652 | – | 0.0535 | – | 0.047 | 0.0625 | 0.0722 | – | 0.0628 | 0.0586 | 0.054 | – | 0.0263 | – | – | – |
| S26L | 0.0511 | 0.0464 | – | 0.065 | 0.0538 | – | – | – | 0.0438 | 0.0509 | 0.0708 | – | 0.058 | 0.0522 | 0.0555 | 0.0656 | – | 0.0083 |
| S26P | 0.0627 | 0.067 | 0.058 | 0.0498 | 0.0458 | 0.057 | 0.0512 | – | 0.057 | – | 0.0544 | 0.0447 | 0.0552 | 0.0482 | 0.0597 | 0.0553 | 0.053 | 0.047 |
| T30Y | 0.0668 | 0.0731 | 0.0632 | 0.0679 | 0.0587 | 0.0777 | 0.0696 | 0.0823 | 0.0587 | – | 0.0629 | 0.068 | 0.0389 | 0.0754 | 0.0932 | – | – | – |
| T30L | 0.0752 | 0.0701 | – | 0.0897 | 0.0646 | 0.0626 | – | – | 0.0794 | 0.0748 | 0.0734 | 0.0705 | 0.059 | 0.0621 | 0.0629 | – | 0.0657 | – |
| H21Q | 0.0747 | 0.0506 | 0.0541 | 0.0629 | 0.0599 | 0.064 | 0.0599 | – | 0.0635 | – | 0.0432 | 0.0635 | 0.0513 | 0.0542 | 0.0663 | 0.0677 | 0.0672 | – |
| H21C | 0.0723 | 0.071 | 0.0436 | 0.0713 | 0.0469 | 0.0675 | 0.0636 | 0.0604 | 0.0631 | – | 0.074 | – | 0.0544 | 0.0784 | – | – | – | 0.0517 |
| H21A | 0.0675 | 0.073 | 0.068 | 0.0617 | 0.0502 | 0.0607 | 0.0566 | 0.056 | – | – | 0.0758 | – | 0.0428 | 0.0689 | 0.0582 | 0.0721 | 0.0663 | – |
| G39E | 0.0337 | 0.0477 | – | 0.0429 | – | – | 0.0396 | 0.0446 | 0.0412 | – | 0.0367 | 0.0246 | 0.0478 | – | – | 0.0389 | 0.0426 | 0.0356 |
